Reference: PubChem BioAssay AID1030 (National Center for Advancing Translational Sciences (NCATS), 2008)
Screen size: about 220,000 compounds; about 16,000 (7.3%) were called active. Inconclusive results, whose numbers are uncertain, are shown with a selection of clear calls. The call rests on the fitted dose curve; in most records, active means well fitted inhibition curve with a large enough effect (not every such curve was filed as active); inconclusive means small, poorly fitted or top-dose-only effect, or another doubt; inactive means no such curve, though single readings can be large or run the other way. No potency is given beside an inconclusive call; the fits are too rough.

target: Aldehyde dehydrogenase 1A1 (Homo sapiens) (UniProt P00352); experiment: qHTS Assay for Inhibitors of Aldehyde Dehydrogenase 1 (ALDH1A1); details: Purified ALDH1A1, NADH fluorescence, propionaldehyde substrate; series mostly up to 75.3 µM; activity, negative = inhibition: at the top concentration;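 on activity, negative = inhibition: plate controls were no enzyme wells and a reference inhibitor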
Potency means the concentration at half of the fitted maximal effect; tags describe the fitted curve by direction and shape.

Sequence of UniProt P00352 (P00352 whole entry, looked up): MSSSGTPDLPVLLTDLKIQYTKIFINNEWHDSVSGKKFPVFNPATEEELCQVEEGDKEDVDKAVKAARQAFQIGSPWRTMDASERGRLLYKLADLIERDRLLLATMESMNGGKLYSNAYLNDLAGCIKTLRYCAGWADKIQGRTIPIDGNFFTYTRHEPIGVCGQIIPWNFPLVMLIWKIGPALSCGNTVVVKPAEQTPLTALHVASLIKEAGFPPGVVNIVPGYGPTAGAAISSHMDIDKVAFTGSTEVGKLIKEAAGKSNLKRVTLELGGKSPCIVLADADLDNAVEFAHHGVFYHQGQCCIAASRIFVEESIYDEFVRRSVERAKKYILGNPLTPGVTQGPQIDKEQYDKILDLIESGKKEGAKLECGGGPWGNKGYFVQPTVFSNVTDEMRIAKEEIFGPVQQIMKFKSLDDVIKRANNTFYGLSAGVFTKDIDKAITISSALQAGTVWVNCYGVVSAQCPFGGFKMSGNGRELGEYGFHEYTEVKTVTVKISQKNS

Compound | activity, negative = inhibition | Potency
COc1cc(/C=N/NC(=O)c2ccncc2)ccc1OCCN1CCCCC1 | inactive: 2.28% | –
CC(C)CN(CC(C)C)CC(O)COc1ccc([N+](=O)[O-])cc1 (centres undefined) | inactive: -0.737% | –
COc1nc(-c2ccccc2)ccc1-c1noc(-c2cccnc2)n1 | – | inconclusive [inhibitor, single point]
O=C(CC1C(=O)NCCN1Cc1ccc(-c2ccccc2)cc1)NCc1ccccc1 (centres undefined) | – | inconclusive [inhibitor, partial curve]
N#Cc1ncc(C(F)(F)F)cc1Oc1cccnc1 | inactive: 10.8% | –
CC(=O)Nc1ccc(NC(=O)c2oc3cc(C)c(C)cc3c2C)cc1 | – | inconclusive [inhibitor, single point]
CCOc1ccc(-c2n[nH]c(=S)o2)cc1 | – | inconclusive [inhibitor, partial curve]
O=C(N/N=C/c1cc(Br)ccc1O)C(c1ccncc1)N1CCOCC1 (centres undefined) | – | inconclusive [inhibitor, single point]
CN=C1NN=C(c2cc(C)n(-c3ccc(Cl)cc3)c2C)CS1 | – | active: 8.91 µM
Cc1ccc(C)c(C(=O)CSc2n[nH]c(C(C)C)n2)c1 | inactive: -5.16% | –
N#CC1=C(N)Oc2cc3ccccc3cc2C1c1cccs1 (centres undefined) | – | inconclusive [inhibitor, partial curve]
CCN1CCN(Cc2nc3c(c(=O)n(C)c(=O)n3C)n2CC(=O)c2ccccc2)CC1 | – | inconclusive [inhibitor, single point]
CC(C)NC(=O)c1cnc(N2CCN(c3ccccn3)CC2)c2ccccc12 | – | active: 31.6 µM
O=S(=O)(c1cccc(-c2csc(-c3cccnc3)n2)c1)N1CCCCC1 | – | inconclusive [inhibitor, partial curve]
Cc1cc(C)nc(NC(=O)/C=C/c2cccs2)c1 | – | inconclusive [inhibitor, partial curve]
COc1cccc(C(=O)Nc2ccc(-c3nc4ccccc4o3)c(O)c2)c1 | – | inconclusive [inhibitor, partial curve]
O=C(Nc1nc2ccc(S(=O)(=O)N3CCCC3)cc2s1)C1CCCO1 (centres undefined) | – | inconclusive [inhibitor, partial curve]
CCc1ccc(CNC(=O)CN2C(=O)COc3ccccc32)cc1 | inactive: -2.86% | –
O=C(NCc1cccnc1)c1ccc(N2CCOCC2)c([N+](=O)[O-])c1 | inactive: 3.05% | –
Cc1cc(-c2ccccc2)n2ncc(C#N)c2n1 | – | inconclusive [inhibitor, partial curve]
N#CCC(=O)N/N=C/c1cc(-c2ccccc2)n(-c2ccc(Cl)cc2)c1-c1ccccc1 | – | inconclusive [inhibitor, single point]
CC(C)(C)c1ccc(C(CC(=O)O)NC(=O)Cc2ccc(F)cc2)cc1 (centres undefined) | inactive: 0.333% | –
O=C(NC1CCCCC1)C12CC3CC(CC(Cl)(C3)C1)C2 | inactive: -4.04% | –
COCCn1nnnc1CN(Cc1cccnc1)Cc1cc2cc(OC)ccc2[nH]c1=O | – | inconclusive [inhibitor, partial curve]
Cc1ccccc1C1N(c2nccs2)C(=O)C2CCCN21 (centres undefined) | – | inconclusive [inhibitor, single point]

Compound | activity, negative = inhibition | Potency
COc1cc(-c2nnc(SCC3(c4ccccc4)OCCO3)o2)cc(OC)c1OC | – | inconclusive [inhibitor, single point]
COc1ccc2c(c1)nc(SCC(=O)c1ccc(Br)s1)n2C | – | active: 28.2 µM
CCCCCNS(=O)(=O)c1cc(C)ccc1OC | inactive: -1.54% | –
Clc1cccc(Cl)c1Cn1ccc(C2CC2)n1 | – | inconclusive [inhibitor, single point]
CCC(=O)NC(=S)Nc1cccc(NC(=O)c2ccccc2C)c1 | – | inconclusive [inhibitor, single point]
Cc1cc(SCC(=O)N2CCC(c3noc4ccc(F)cc34)CC2)nc2ccccc12 | – | inconclusive [inhibitor, single point]
O=C(COC(=O)c1ccc(NS(=O)(=O)c2ccc3c(c2)OCCO3)cc1)NC1CC1 | inactive: -12% | –
O=C(CCN1C(=O)c2ccccc2C1=O)Oc1ccc2ccccc2c1 | – | inconclusive [inhibitor, single point]
CCc1ccc(C2C(C#N)=C(N)C(C#N)(C#N)C3=CCC(C(C)(C)C)CC32)cc1 (centres undefined) | – | inconclusive [inhibitor, single point]
CC(C)Cn1c(N)cc(=O)n(C)c1=O | – | inconclusive [inhibitor, single point]
Cc1ccc(Nc2nc3c(c(=O)[nH]c(=O)n3C)n2Cc2ccc(F)cc2)cc1 | inactive: 6.2% | –
N#Cc1nc(-c2cccs2)oc1NCC1CCCO1 (centres undefined) | – | inconclusive [inhibitor, partial curve]
CCN(CC)S(=O)(=O)c1cc([N+](=O)[O-])ccc1N1CCC(C(N)=O)CC1 | – | inconclusive [inhibitor, full curve]
CCn1c(=O)n(CCc2ccccc2)c(=O)c2c3c(sc21)CCCC3 | inactive: -1.74% | –
CC(=O)N1CCCC(C(=O)c2ccc(Oc3ccccc3)cc2)C1 (centres undefined) | – | inconclusive [inhibitor, single point]
COc1ccc(C)cc1NC(=O)C(=O)NNC(=O)COc1ccc(Cl)cc1 | inactive: 0.526% | –
COCCCn1cnnc1SCC(=O)Nc1ccc(S(=O)(=O)N2CCCC2)cc1 | – | active: 11.2 µM
O=C(NNC(=O)c1cnccn1)c1cccc([N+](=O)[O-])c1 | – | inconclusive [inhibitor, single point]
CCc1nc(C)ccc1OCC(=O)NCCCN(C)C | – | inconclusive [inhibitor, partial curve]
CCCc1nc(N)c(C#N)c(-c2ccco2)c1CC | – | inconclusive [inhibitor, partial curve]
CCN(CC)C(=O)c1n[nH]c(=O)c2ccccc12 | inactive: 1.18% | –
Cc1ccc(S(=O)(=O)c2c(N)n(-c3ccccc3)c3nc4ccccc4nc23)cc1 | – | inconclusive [inhibitor, partial curve]
CCC(C)(C)n1nnnc1C(C(C)C)N(CCN1CCOCC1)Cc1cc2cccc(C)c2[nH]c1=O (centres undefined) | – | inconclusive [inhibitor, single point]
CCc1ccc2nc3nc(C)cc(C)c3c(N)c2c1 | – | inconclusive [inhibitor, partial curve]
COc1ccc(NC(=O)CSc2nnc(-c3cccs3)n2C)cc1OC | inactive: -4.01% | –

Compound | activity, negative = inhibition | Potency
CCCCNC(=O)C(c1ccc(OCC(=O)OC)c(C(=O)OC)c1)N(CCOC)C(=O)CCCCCN1C(=O)NC(c2ccc(-c3ccccc3)cc2)C(C(=O)OCc2ccccc2)=C1C (centres undefined) | inactive: -2.48% | –
O=C(NCc1cccnc1)c1ccc2c(c1)N(Cc1ccccc1)CCS2 | – | inconclusive [inhibitor, partial curve]
CCCc1c(C)nn(-c2ncccc2[N+](=O)[O-])c1C | inactive: -10.7% | –
CC[n+]1c(C)cc(C)n1-c1ccccc1 | inactive: 5.83% | –
Cc1ccc(S(=O)(=O)Nc2ccc(C(N)=O)cc2)cc1[N+](=O)[O-] | – | inconclusive [inhibitor, partial curve]
CCOC(=O)CNS(=O)(=O)c1ccc(C(=O)O)cc1 | inactive: -0.752% | –
COC(=O)C1CCCN1C(=O)COc1ccc(Br)cc1Cl (centres undefined) | – | inconclusive [inhibitor, single point]
CN(Cc1ccccc1)C(=O)CN1CCN(C(c2ccccc2)c2ccccc2)CC1 | inactive: -7.45% | –
Cc1ccc(-n2c(C)nn(CC3CC3)c2=O)cc1 | inactive: 8.56% | –
CC(C)Sc1nc2c(c(=O)[nH]c(=O)n2C)n1CC(O)COc1ccccc1 (centres undefined) | – | inconclusive [inhibitor, single point]
O=C(c1nn2c(C(F)(F)F)cc(-c3ccco3)nc2c1Br)N1CCCc2ccccc21 | – | active: 7.94 µM
Cc1cc(C)c(C(=O)COC(=O)c2cc([N+](=O)[O-])ccc2NCCO)cc1C | inactive: -3.99% | –
N#CCCN(C(=O)COc1ccc(Cl)cc1Cl)c1ccccc1 | – | inconclusive [inhibitor, single point]
O=C(c1ccco1)N1CCN(C(c2cccs2)c2nnnn2C2CCCC2)CC1 (centres undefined) | – | inconclusive [inhibitor, single point]
Cc1cc(C(=O)CSc2nnc(NCc3ccccc3)s2)c(C)n1C | inactive: -5.71% | –
c1csc(CNc2cc(-c3ccoc3)ncn2)c1 | – | inconclusive [inhibitor, single point]
CCOC(=O)c1ccccc1N1C(=O)C2Sc3[nH]c(=O)sc3C(/C=C/c3ccccc3)C2C1=O (centres undefined) | – | inconclusive [inhibitor, single point]
CN(C)S(=O)(=O)c1ccc(C(=O)NCc2nnc(SCC(=O)Nc3ccc(F)cc3)n2-c2ccc(F)cc2)cc1 | – | active: 7.08 µM
CCN(Cc1ccccc1)c1ccc(/C=N/NC(=O)c2cccc(S(=O)(=O)N3CCOCC3)c2)cc1 | – | inconclusive [inhibitor, partial curve]
Cc1ccc(S(=O)(=O)NCCCCCC(=O)Nc2ccccc2)cc1 | – | active: 11.2 µM
CC(C)c1ccc(OCC(=O)Nc2cccc(C(=O)Nc3ccccc3C(=O)O)c2)cc1 | – | active: 20 µM
COc1ccc(/C=C(\C#N)C(=O)OCC(=O)NC2CC2)cc1 | – | active: 20 µM
COC(=O)C1(CC(C)C)C=C2C(=C(C(C)C)C(=O)C2C)CN1 (centres undefined) | – | active: 35.5 µM
Cn1c(Cn2nnc3ccccc32)nnc1SCC(=O)c1ccccc1F | – | inconclusive [inhibitor, single point]
